Assay results as given in paper PMC4336329 (PLoS ONE, 2015).
Hit rate of the full screen: of about 310,000 compounds, about 14,000 (4.5%) showed an effect of 50% or more. The effect is printed as a negative number. The list shows a part of the results.

target: human ether-à-go-go-related gene (hERG) potassium channel (human, UniProt Q12809); assay: primary screen, population patch clamp on CHO cells stably expressing hERG
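Also: peak tail current of the secondary pulse compared with the same well before compound.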

human ether-à-go-go-related gene (hERG) potassium channel, sequence (Q12809 whole entry, looked up): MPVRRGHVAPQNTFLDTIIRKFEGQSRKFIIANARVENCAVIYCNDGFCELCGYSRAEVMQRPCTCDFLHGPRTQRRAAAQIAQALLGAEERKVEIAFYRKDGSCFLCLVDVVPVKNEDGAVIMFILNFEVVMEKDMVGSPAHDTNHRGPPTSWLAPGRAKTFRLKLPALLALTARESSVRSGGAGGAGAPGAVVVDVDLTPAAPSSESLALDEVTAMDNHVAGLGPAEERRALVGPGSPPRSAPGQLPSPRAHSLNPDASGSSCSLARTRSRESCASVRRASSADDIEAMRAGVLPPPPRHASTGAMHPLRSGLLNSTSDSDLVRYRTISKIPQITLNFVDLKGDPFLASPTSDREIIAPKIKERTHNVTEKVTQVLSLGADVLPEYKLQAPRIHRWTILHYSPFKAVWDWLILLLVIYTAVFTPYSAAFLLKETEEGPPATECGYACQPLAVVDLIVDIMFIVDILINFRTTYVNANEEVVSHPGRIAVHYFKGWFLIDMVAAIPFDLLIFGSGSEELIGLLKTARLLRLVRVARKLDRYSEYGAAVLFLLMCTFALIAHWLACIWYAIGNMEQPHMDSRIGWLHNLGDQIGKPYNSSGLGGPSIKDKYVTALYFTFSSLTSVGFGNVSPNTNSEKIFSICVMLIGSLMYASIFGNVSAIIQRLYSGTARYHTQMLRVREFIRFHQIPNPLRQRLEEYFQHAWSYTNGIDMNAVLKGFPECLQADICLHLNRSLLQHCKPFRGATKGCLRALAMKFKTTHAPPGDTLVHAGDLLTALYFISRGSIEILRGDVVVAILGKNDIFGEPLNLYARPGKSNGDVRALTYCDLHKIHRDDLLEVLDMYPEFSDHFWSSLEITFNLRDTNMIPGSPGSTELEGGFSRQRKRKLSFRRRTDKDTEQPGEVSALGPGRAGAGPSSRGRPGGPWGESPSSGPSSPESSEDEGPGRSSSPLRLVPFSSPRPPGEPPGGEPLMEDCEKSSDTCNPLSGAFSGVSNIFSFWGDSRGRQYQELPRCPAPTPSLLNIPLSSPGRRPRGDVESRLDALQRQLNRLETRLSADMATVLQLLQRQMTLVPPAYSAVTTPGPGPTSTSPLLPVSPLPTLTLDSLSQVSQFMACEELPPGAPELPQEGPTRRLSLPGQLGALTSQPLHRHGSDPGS

SMILES | hERG current change (%, negative = inhibition) at 10uM
COc1ccc(N2CCN(C(=O)c3ccc4c(=O)n(Cc5ccc6c(c5)OCO6)c(=O)[nH]c4c3)CC2)cc1 | 36.1%
O=C(OCC1CC(c2ccccn2)=NO1)c1ccc(Br)cc1 (stereo not drawn) | -0.0181%
Cc1cc(Sc2nc(NC(C)C)nc(NC(C)C)n2)nc(Cl)n1 | -20.2%
COc1ccc(C(C)C)cc1S(=O)(=O)Nc1ncn[nH]1 | 31.3%
O=c1ccc2cc(S(=O)(=O)N3CCN(c4ccc(Cl)cc4)CC3)ccc2o1 | -52.8%
COc1ccc(C)cc1CN1C(=O)c2ccccc2C1=O | 17.5%
O=C(Nc1ccccc1Cl)NC1CCCCCCC1 | 9.91%
Cc1cccc(CNC(=O)c2ccc(NC(=O)C3=CSCCO3)cc2)c1 | 5.08%
COC(=O)C(NC(C)=O)(Nc1ccc(Br)cc1)C(=O)OC | 38.3%
CCOc1ccccc1NC(=O)C(OC(=O)c1ccc(N(C)C)cc1)c1ccccc1 (stereo not drawn) | 3.98%
Cc1nc2sc3c(c2c(=O)[nH]1)CCCC3 | 4.08%
COc1ccc(C(=O)NC(=S)Nc2ccccc2N2CCOCC2)cc1Br | 2.74%
Cc1cccc2nc(-c3ccccc3)nc(N[C@@H](CO)c3ccccc3)c12 | -2.51%
COc1ccc(N=CC2=C(O)CC(c3ccccc3)CC2=O)c(OC)c1 (stereo not drawn) | -6.57%
Cc1ccc(N2CC(C(=O)Nc3nnc(SCC(=O)N4CCOCC4)s3)CC2=O)cc1 (stereo not drawn) | 11.8%
Cc1nn2c(C(F)(F)F)c3c(nc2c1-c1ccccc1)CCC3 | 19.1%
COC(=O)C(NC(C)=O)(Nc1cccc(C)n1)C(F)(F)F (stereo not drawn) | 8.06%
O=C(Nc1nc2ccc(C(=O)N3CCCCC3)cc2s1)C1CCCCC1 | 7.68%
O=C(NCCOc1ccc(F)cc1)C1CCC(=O)N(CCN2CCOCC2)C1 (stereo not drawn) | 11.2%
COC(=O)c1cn(NC(=O)c2ccncc2)c(=O)c2ccccc12 | 0.88%
O=[N+]([O-])c1ccc(N2CCCC2)cc1N/N=C1\CN2CCC1CC2 | -11.9%
COc1ccccc1NC(=O)CSc1nnc(COc2ccccc2OC)n1C | -15.7%
COC(=O)c1cc(OC)c(OC)cc1NC(=S)N1CCN(Cc2ccccc2)CC1 | 6.28%
CCc1nn(CC(=O)NCCCN(CC)c2cccc(C)c2)c(=O)c2cc3occc3n12 | -16.3%
